First the molecules themselves.
B1: GPR68, Q15743 (parent)
chain: MGNITADNSSMSCTIDHTIHQTLAPVVYVTVLVVGFPANCLSLYFGYLQIKARNELGVYLCNLTVADLFYICSLPFWLQYVLQHDNWSHGDLSCQVCGILLYENIYISVGFLCCISVDRYLAVAHPFRFHQFRTLKAAVGVSVVIWAKELLTSIYFLMHEEVIEDENQHRVCFEHYPIQAWQRAINYYRFLVGFLFPICLLLASYQGILRAVRRSHGTQKSRKDQIQRLVLSTVVIFLACFLPYHVLLLVRSVWEASCDFAKGVFNAYHFSLLLTSFNCVADPVLYCFVSETTHRDLARLRGACLAFLTCSRTGRAREAYPLGAPEASGKSGAQGEEPELLTKLHPAFQTPNSPGSGGFPTGRLA

Scores whose standard error is large were omitted. The source holds two more conditions with little spread; they are left out. In variant names, del marks residues removed and ins residues inserted between the two positions. For some of these results: How much ogerin was present is not stated here.

In data set [1] the parent is B1. Kind of data set: cAMP reporter score (Enrich2 score, wild type = 0); higher = more signal; HEK293T, FACS bins.
In data set [2] the parent is B1. Kind of data set: surface expression score (Enrich2 score, wild type = 0); higher = more signal; HEK293T, FACS bins.

As to MGNITADNSSMGCTIDHTIHQTLAPVVYVTVLVVGFPANCLSLYFGYLQIKARNELGVYLCNLTVADLFYICSLPFWLQYVLQHDNWSHGDLSCQVCGILLYENIYISVGFLCCISVDRYLAVAHPFRFHQFRTLKAAVGVSVVIWAKELLTSIYFLMHEEVIEDENQHRVCFEHYPIQAWQRAINYYRFLVGFLFPICLLLASYQGILRAVRRSHGTQKSRKDQIQRLVLSTVVIFLACFLPYHVLLLVRSVWEASCDFAKGVFNAYHFSLLLTSFNCVADPVLYCFVSETTHRDLARLRGACLAFLTCSRTGRAREAYPLGAPEASGKSGAQGEEPELLTKLHPAFQTPNSPGSGGFPTGRLA [S12G], the cAMP reporter score in data set [1] (pH 5.5) was 0.409; in data set [1] (pH 6), 0.137; in data set [1] (pH 6, modulator: ogerin), 0.203; in data set [1] (pH 6.5, modulator: ogerin), -0.198. The surface expression score in data set [2] came out at 0.024.
The like results for MGNITADNSSMFCTIDHTIHQTLAPVVYVTVLVVGFPANCLSLYFGYLQIKARNELGVYLCNLTVADLFYICSLPFWLQYVLQHDNWSHGDLSCQVCGILLYENIYISVGFLCCISVDRYLAVAHPFRFHQFRTLKAAVGVSVVIWAKELLTSIYFLMHEEVIEDENQHRVCFEHYPIQAWQRAINYYRFLVGFLFPICLLLASYQGILRAVRRSHGTQKSRKDQIQRLVLSTVVIFLACFLPYHVLLLVRSVWEASCDFAKGVFNAYHFSLLLTSFNCVADPVLYCFVSETTHRDLARLRGACLAFLTCSRTGRAREAYPLGAPEASGKSGAQGEEPELLTKLHPAFQTPNSPGSGGFPTGRLA [S12F] were, in that order, 0.663, 1.73, 1.28, 2.14 and 1.12.

Values taken from the GPR68 mutational scans of Howard et al. (2025).
